Data: the RNAGym collection of RNA variant scans (doi:10.7554/elife.90254)
The source gives no read counts; variants with many changes may rest on few reads.

B1: LINE1-mini (parent)
chain: GGCAGAGCUCAACACAGCGUGGCAAAGUGGCUGUGGCUAGACUGCC

Variants of: B1
Assay: self-cleavage, relative activity (ratio to wild type); higher = more cleavage; in vitro, sequencing; the parent is a self-cleaving ribozyme

Row | Variant | self-cleavage
1 | GGCAGAGCUCAACACAGCGUGGCAACGUGACUGUGGCUAGACUUCC | 0.03
2 | GGCAGAGCUCAACACAGCGUGGCACAGUGGAUGUGUCUAGAUUGCC | 0.03
3 | GGCAGAGCUCAACACAGCGUGGCAAGGUGGGUGUGGCUAGUCUGCC | 0.06
4 | GGCAGAGCUCAACACAGCGUGGCAACUUGGCUUUGUCUAGACUGCC | 0.02
5 | GGCAGAGCUCAACACAGCGUGGCACAGUGGGUGUGGCUAGGCUGCC | 0.04
6 | GGCAGAGCUCAACACAGCGUGGCAUAGUGGCUGUGGCAAGACUGGC | 0.22
7 | GGCAGAGCUCAACACAGCGUGGCAAGGUGGCUGUGGCUAGAGAGCC | 0.01
8 | GGCAGAGCUCAACACAGCGUGGCAACGUGGCUGUAGCUAGACUGAU | 0.05
9 | GGCAGAGCUCAACACAGCGUGGCACAGUGGCCGUGACUAGUCUGCC | 0.16
10 | GGCAGAGCUCAACACAGCGUGGCAUAGUGGCUGAGGCUAAACUGCC | 0
11 | GGCAGAGCUCAACACAGCGUGGCAACGUGGUAGUGUCUAGACUGCU | 0.13
12 | GGCAGAGCUCAACACAGCGUGGCAGAGUGGCUGGGGCUAGACUGCA | 0.04
13 | GGCAGAGCUCAACACAGCGUGGCAUUGUGGAUGUGGCUAGACUGCC | 0.04
14 | GGCAGAGCUCAACACAGCGUGGCAUAAUGGCUGUCGCUAGACUGCG | 0.03
15 | GGCAGAGCUCAACACAGCGUGGCACAGUGGCUGUGGCUCUACUUCC | 0.02
16 | GGCAGAGCUCAACACAGCGUGGCAUAGUGGCUGUGUCAAGAUUGCC | 0.03
17 | GGCAGAGCUCAACACAGCGUGGCAAGGUGGCUGUGGUUAGACUACC | 0.06
18 | GGCAGAGCUCAACACAGCGUGGCAACGUGGCUUUGGCUAGAUUGCC | 0.09
19 | GGCAGAGCUCAACACAGCGUGGCAUAGUGGCUGUGGCUAGAUUGGC | 0.13

Row | Variant | self-cleavage
20 | GGCAGAGCUCAACACAGCGUGGCACAGUGGCUGUGGUUAGUCAGAC | 0.01
21 | GGCAGAGCUCAACACAGCGUGGCACAGUGGCUAUGGCUAGACUGUC | 0.05
22 | GGCAGAGCUCAACACAGCGUGGCAUAUUGGCUGAGCCUUGACUGCC | 0.09
23 | GGCAGAGCUCAACACAGCGUGGCAACGUGGCUGUGUCUAGAUUGCC | 0.06
24 | GGCAGAGCUCAACACAGCGUGGCAUAGUGUCUGUGGCUAGCCUGCC | 0.04
25 | GGCAGAGCUCAACACAGCGUGGCACAGUGGCUGUGGCUAUACUGGC | 0.02
26 | GGCAGAGCUCAACACAGCGUGGCAUAGUGUCUGCGGCUAGACUGCC | 0.05
27 | GGCAGAGCUCAACACAGCGUGGCAAGGUGGCUGUGGCUAGAGUGCG | 0.07
28 | GGCAGAGCUCAACACAGCGUGGCAGAGGGUCUGUUGAUAGACUGUC | 0.02
29 | GGCAGAGCUCAACACAGCGUGGCAUAGUGUCUGUGGCUAGACCGCC | 0.22
30 | GGCAGAGCUCAACACAGCGUGGCAGAAUGGCUGCGGCUAGACUGCC | 0.04
31 | GGCAGAGCUCAACACAGCGUGGCAACGUGGCUGUUGCUAUACUGCC | 0.05
32 | GGCAGAGCUCAACACAGCGUGGCAAGGUCUCUGAGGCUGGACUGCC | 0.02
33 | GGCAGAGCUCAACACAGCGUGGCAACGUGUCUGUGGCUUGACUGCC | 1.6
34 | GGCAGAGCUCAACACAGCGUGGCAACGUAGCUGUGACUAGAUUACU | 0.03
35 | GGCAGAGCUCAACACAGCGUGGCACAGUGGCAGCGGCUAGACUGCC | 0.03
36 | GGCAGAGCUCAACACAGCGUGGCAUAGUGGCUGUGGCUAGCGUGCC | 0.25
37 | GGCAGAGCUCAACACAGCGUGGCAUAGUGGGUGUGGCUAGACUGUC | 0.05
38 | GGCAGAGCUCAACACAGCGUGGCAUAUUGACCGUGGCUAGACUGCC | 1.09

Row | Variant | self-cleavage
39 | GGCAGAGCUCAACACAGCGUGGCAACGAGGCUGUGGCUAGAAUGCU | 0.15
40 | GGCAGAGCUCAACACAGCGUGGCAUAUUGGCUGUGGCUAAACUGCC | 0
41 | GGCAGAGCUCAACACAGCGUGGCAGAGUUGCUGUGUCUAGACUGCC | 0.01
42 | GGCAGAGCUCAACACAGCGUGGCAACGUGGCAGGGGCUAGACUGCC | 0.01
43 | GGCAGAGCUCAACACAGCGUGGCAAGAUUGCUGUGGCUAGACUGCC | 0.7
44 | GGCAGAGCUCAACACAGCGUGGCACAUUGGCAGUGGCUAGACUGCC | 0.12
45 | GGCAGAGCUCAACACAGCGUGGCAGAGUGGCUGUCUCUAGACUGCC | 0.02
46 | GGCAGAGCUCAACACAGCGUGGCACAAUGGCUGAGGCUAGACUGCC | 0.19
47 | GGCAGAGCUCAACACAGCGUGGCAAGGUGGAUGUGGCUAGAAUGCU | 0.03
48 | GGCAGAGCUCAACACAGCGUGGCAGAGUGAAUGUGGCUAGACUGCC | 0.33
49 | GGCAGAGCUCAACACAGCGUGGCACAGUGGAUGUGACUAGACUGCC | 0.08
50 | GGCAGAGCUCAACACAGCGUGGCAACGUGGAUUUGGCAAGACUGGC | 0.02
51 | GGCAGAGCUCAACACAGCGUGGCACAGUGGCGGUCGCUAGACUGCC | 0.1
52 | GGCAGAGCUCAACACAGCGUGGCAACGUGCCUGUGUGUAGACUGCC | 0.01
53 | GGCAGAGCUCAACACAGCGUGGCAGAGUAGCUGGGGCUAGACUGCC | 0.23
54 | GGCAGAGCUCAACACAGCGUGGCAAGCUGGCUGUCGCUCGACUGCU | 0.01
55 | GGCAGAGCUCAACACAGCGUGGCAUGGUGGCUGUGGCUAGACUAAC | 0.01
56 | GGCAGAGCUCAACACAGCGUGGCAAGGUAGCUGUAGCUAGACUGCC | 0.11
